Assay results from the supplement of paper PMC10369915.
This is one part of the list. Rule as the data show it: active = 3.2 or more and inactive = the rest. Only a few entries rise above the background.

B1: HLA-DRB1_Y107_Y107V (peptide)
chain: AAVDTVCRHNY
B2: HLA-B_Y123_V127M (peptide)
chain: TLQSMYGCDMG
B3: HNRNPA1_Y312_D314N (peptide)
chain: GGGGSYNNFGN
B4: HLA-DPB1_Y57_YF (peptide)
chain: RFLERYIFNRE
B5: HLA-B_Y123_S121R (peptide)
chain: TLQRMYGCDVG
B6: HLA-DPB1_Y59_F64Y (peptide)
chain: LERYIYNREEY
B7: HLA-DPB1_Y57_E62Q (peptide)
chain: RFLERYIYNRQ
B8: HNF4A_Y144_T139I (peptide)
chain: IRRSSYEDSSL
B9: HLA-C_Y31_A35S (peptide)
chain: SHSMRYFDTSV
B10: HLA-DQB1_Y62_Y62H (peptide)
chain: RYVTRHIYNRE
B11: HMGCL_Y198_G203E (peptide)
chain: YSMGCYEISLE
B12: HPRT1_Y198_D201Y_YF (peptide)
chain: LDFNEYFRFLN
B13: HNRNPA1_Y318_D314N (peptide)
chain: NNFGNYNNQSS
B14: HMGB1_Y144_A149E (peptide)
chain: DDKQPYEKKAE
B15: HLA-DQB1_Y62_Y62S (peptide)
chain: RYVTRSIYNRE
B16: HLA-DPB1_Y59_R61P (peptide)
chain: LERYIYNPEEF
B17: HLA-C_Y137_YF (peptide)
chain: RLLRGYDQSAF
B18: HLA-DQB1_Y62_V59L (peptide)
chain: RYLTRYIYNRE

molecular target: SHP2 C-SH2 domain E139D; test: enrichment score (SH2-bound / input frequency) (ratio); bacterial display of known human phosphotyrosine sites (pTyr-Var adds point mutants) read by sequencing; higher = stronger binding; tyrosines were phosphorylated by kinases first; conditions: peptide library: pTyr-Var
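Also: displayed peptides selected on beads carrying the immobilized SH2 domain, with library peptides lacking any tyrosine serving as negative controls.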

Enrichment score, inactive:
B1 0.954
B2 0.717
B3 0.672
B4 2.7
B5 0.791
B6 0.701
B7 0.791
B8 0.424
B9 0.839
B10 0.318
B11 0.882
B12 1.62
B13 0.636
B14 0.463
B15 0.254
B16 1.42
B17 1.02
B18 0.348

molecular target: SHP2 C-SH2 domain wild-type; test: as above; conditions: peptide library: pTyr-Var

Enrichment score, inactive:
B1 1.06
B2 0.859
B3 0.677
B4 2.42
B5 0.779
B6 0.618
B7 0.626
B8 0.419
B9 0.816
B10 0.291
B11 1.13
B12 1.56
B13 0.493
B14 0.555
B15 0.196
B16 1.2
B17 0.967
B18 0.306

molecular target: SHP2 N-SH2 domain L43F; test: as above; conditions: peptide library: pTyr-Var

Enrichment score, inactive:
B1 0.916
B2 1.08
B3 0.534
B4 2.56
B5 0.944
B6 0.83
B7 0.706
B8 0.461
B9 1.08
B10 0.352
B11 0.923
B12 1.53
B13 0.478
B14 0.416
B15 0.327
B16 1.17
B17 1.2
B18 0.243

molecular target: SHP2 N-SH2 domain T42A; test: as above; conditions: peptide library: pTyr-Var

Enrichment score, inactive:
B1 0.857
B2 0.839
B3 0.542
B4 1.36
B5 0.891
B6 0.819
B7 0.568
B8 0.431
B9 0.9
B10 0.354
B11 0.673
B12 1.33
B13 0.651
B14 0.534
B15 0.182
B16 0.847
B17 1.09
B18 0.327

molecular target: SHP2 N-SH2 domain T52S; test: as above; conditions: peptide library: pTyr-Var

Enrichment score, inactive:
B1 1.01
B2 0.891
B3 0.698
B4 1.26
B5 0.838
B6 0.599
B7 0.725
B8 0.385
B9 0.97
B10 0.331
B11 0.863
B12 1.22
B13 0.575
B14 0.42
B15 0.226
B16 0.864
B17 0.889
B18 0.343

molecular target: SHP2 N-SH2 domain wild-type; test: as above; conditions: peptide library: pTyr-Var

Enrichment score, inactive:
B1 1.14
B2 1.14
B3 0.607
B4 2.13
B5 1.11
B6 0.545
B7 0.859
B8 0.468
B9 1.1
B10 0.345
B11 1.02
B12 1.72
B13 0.579
B14 0.504
B15 0.244
B16 0.937
B17 1.02
B18 0.222
